In paper PMC6919601, “Identification of Plasmodium dipeptidyl aminopeptidase allosteric inhibitors by high throughput screening” (PLoS ONE, 2019):
Hit rate of the full screen: of about 110,000 compounds, about 230 (0.21%) showed an effect of 50% or more. The list shows a part of the results.

These compounds were tested against DPAP1 (Plasmodium falciparum, UniProt Q8IIJ9) (assay: primary screen, percent inhibition; read by cleavage of a fluorogenic dipeptide substrate; higher = more effect of the substance).
Sequence of DPAP1 (Q8IIJ9 whole entry, looked up): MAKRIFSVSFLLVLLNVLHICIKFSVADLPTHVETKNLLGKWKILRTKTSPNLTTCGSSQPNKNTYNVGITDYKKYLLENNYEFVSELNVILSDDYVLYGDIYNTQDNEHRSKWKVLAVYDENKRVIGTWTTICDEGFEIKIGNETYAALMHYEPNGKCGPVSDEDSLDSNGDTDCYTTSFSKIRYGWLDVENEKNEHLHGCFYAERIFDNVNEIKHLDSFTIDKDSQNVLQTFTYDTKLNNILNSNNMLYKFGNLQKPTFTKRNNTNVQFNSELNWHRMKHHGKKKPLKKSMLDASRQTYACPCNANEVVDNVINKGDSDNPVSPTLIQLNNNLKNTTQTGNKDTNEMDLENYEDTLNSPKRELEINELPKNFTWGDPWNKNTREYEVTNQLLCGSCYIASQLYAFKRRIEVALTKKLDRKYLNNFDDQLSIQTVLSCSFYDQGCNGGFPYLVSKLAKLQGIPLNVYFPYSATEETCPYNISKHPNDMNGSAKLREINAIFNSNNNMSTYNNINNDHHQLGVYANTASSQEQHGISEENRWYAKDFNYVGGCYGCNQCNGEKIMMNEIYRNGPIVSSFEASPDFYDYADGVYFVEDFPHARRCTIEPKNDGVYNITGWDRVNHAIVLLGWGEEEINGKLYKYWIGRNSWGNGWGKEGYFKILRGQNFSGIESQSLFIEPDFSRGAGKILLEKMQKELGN
Set-up: species or system P. falciparum D10 trophozoite lysates; single well
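Note: 30 min substrate incubation versus DMSO and 10 µM JCP410 controls.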

SMILES	% Inhibition @ 10 uM [%]
CC1CCCC(NC(=O)CCN2C(=O)c3ccccc3Sc3ncccc32)C1C (stereo not drawn)	4.84
C#CCCCOc1nc(Cl)c(C)n(Cc2ccccc2)c1=O	3.05
CCOc1ccc(C/C(=N\CC(=O)O)C2=C(O)CC(C)(C)CC2=O)cc1OCC	-4.49
Cc1cccc(OCC(=O)NC2CCCCC2NC(=O)COc2cccc(C)c2)c1 (stereo not drawn)	1.28
CC/N=c1\c(NC(=O)c2ccccc2F)c(O)oc2ccccc12	2.5
Cc1cc(C)c(C)c(OCCOCCN2CCN(C)CC2)c1	-0.473
CCOC(=O)c1c2n(c3c(NCc4ccccc4)ncnc13)CCC2	3.01
COCCN1C2=C(C(=O)CC(C)(C)C2)C(c2cccc(OC)c2)C2=C1CC(C)(C)CC2=O	0.147
O=C(O)c1ccc2c(c1)C(=O)N(c1cc(C(=O)O)ccc1Cl)C2=O	3.65
COc1ccc(-n2nnnc2SCC(=O)N2CCCCC2)cc1	-3.64
OC12CC3CC(C1)CC(O)(C3)C2	-2.41
CC(=O)c1cccc(NC(=O)Cn2nc(C(F)(F)F)cc2C2CC2)c1	4.03
CCOc1ccc(C(=O)Nc2ccccc2Cl)cc1	-1.09
COc1ccc(CC(=O)Nc2nc3nc(-c4ccccc4)cc(O)n3n2)cc1	0.401
CC1(C)CC(=O)C(/C=N/CC2CCN(C(=O)c3ccccc3)CC2)=C(O)C1	3.04
Cc1ccc(/C=N/N=C2\CC(c3ccccc3)N=N2)s1 (stereo not drawn)	-5
CCOC(=O)N1CCN(c2c(NCCc3ccc(S(N)(=O)=O)cc3)c(=O)c2=O)CC1	-6.95
C=CCOc1cccc(C2c3c(oc4ccc(F)cc4c3=O)C(=O)N2CCCN2CCOCC2)c1 (stereo not drawn)	-6.71
O=C(CCC(=O)Nc1cccnc1)Nc1cccnc1	-5.06
COc1cc2c(cc1/C=C1/SC(Nc3ccccc3C)=NC1=O)OCO2	-4.36
OCCC1CCCCN1Cc1ccc(C(F)(F)F)cc1 (stereo not drawn)	-3.27
C=CCNC(=O)c1cc(Cl)ccc1NC(=O)c1ccc(Cl)cc1Cl	-2.1
CCCCn1c(C(C)NC(=O)c2cccs2)nc2ccccc21 (stereo not drawn)	11.5
COc1ccc(CC(=O)Nc2ccc(S(=O)(=O)N3CCC(C)CC3)cc2)cc1	3.91
O=C(/C=C/n1c(=S)oc2ccccc21)c1ccccc1	-0.292

SMILES	% Inhibition @ 10 uM [%]
Cc1ccc(C(O)(c2ccccc2)c2nc3ccccc3n2C)cc1 (stereo not drawn)	7.56
Nc1ccc(-c2ccc(-c3ccc(N)cc3)c(N)c2)cc1	-2.74
COc1ccc(C(CC(=O)O)NC(=O)c2ccco2)cc1OC (stereo not drawn)	3
Cc1ccc(N2C(=O)CC(NC3CCCCCC3)C2=O)cc1 (stereo not drawn)	8.08
Cc1cccc([N+]2=C3SCCCN3C(O)(c3cccs3)C2)c1C (stereo not drawn)	2.88
CO/C(O)=C1/C(C)=NC2=C(C(=O)CC(c3ccccc3)C2)C1c1cccnc1 (stereo not drawn)	-0.0953
Cc1nc2ccn(Cc3ccccc3)c(=O)c2cc1C(=O)N1CCCC1	-3.04
CCOc1ccc(N(CC(=O)Nc2ccc(F)cc2)S(=O)(=O)c2ccc(C)cc2)cc1	6.69
Nc1ccc(NC(=O)c2ccc(C(=O)Nc3ccc(N)cc3)cc2)cc1	-0.239
Cc1cccc(NC(=O)c2sc3ccccc3c2Cl)n1	-2.46
CCOC(=O)N1CCN(S(=O)(=O)N2CCC(C(=O)O)CC2)CC1	-3.78
CC(C)N1CCN(C(=O)Cc2ccccc2)CC1	-11.5
CCOC(=O)c1cc2c(=O)n3ccccc3nc2n(C)/c1=N\C(=O)c1ccccc1OCC	2.06
CC1=C(C(=O)OC(C)C)C(c2ccc(C)s2)NC(=O)N1C (stereo not drawn)	10.5
Cc1nn(C(C)C(=O)NC(C)CCc2ccccc2)c(=O)c2c1sc1ccccc12 (stereo not drawn)	-1.49
CCC(C)NC(=O)CNC(=S)N(CCCN1CCOCC1)Cc1cccs1 (stereo not drawn)	-6.49
COc1ccc(Cl)cc1NC(=O)COc1cccc(Cl)c1	3.65
C=CCn1c(COc2ccccc2C)nnc1SCC(=O)NC12CC3CC(CC(C3)C1)C2	-4.04
CN1C2CCC1CC(N(CCc1ccccc1)C(=O)c1ccc(Cl)cc1)C2 (stereo not drawn)	1.4
COc1ccc(C)cc1N(CC(=O)NCc1ccncc1)S(=O)(=O)c1ccc(C)cc1	-4.05
CC(C)CSc1nc2c(c(=O)n(C)c(=O)n2C)n1Cc1ccccc1	4
CCc1ccc(Oc2nc3ccccn3c(=O)c2/C=C(\C#N)C(=O)NCCCOC(C)C)cc1	-0.828
CCOCCCNc1nc2c(S(=O)(=O)c3ccc(C)c(C)c3)nnn2c2ccsc12	-7.78
O=C(O)c1ccc(N2C(=O)C3C4C=CC(C5CC45)C3C2=O)cc1 (stereo not drawn)	-1.59
O=c1c2ccccc2n2c(-c3ccccc3O)nnc2n1CCc1ccccc1	-5.37

SMILES	% Inhibition @ 10 uM [%]
OCC1CCCCN1Cc1ccc(Br)cc1 (stereo not drawn)	-4.15
CN(Cc1ccccc1)S(=O)(=O)c1ccc(NC(=O)c2ccccc2C(=O)O)cc1	-7.84
COc1cc2nc(NCCN3CCOCC3)n3nc(-c4ccccc4)nc3c2cc1OC	-2.64
CCn1c2c(c3cc(OCC(C)C)ccc31)CCCC2=O	-5.15
CC(C(=O)N1CCC(Cc2ccccc2)CC1)n1sc2ccccc2c1=O (stereo not drawn)	-2.29
CC(C)c1cccc(C(C)C)c1C(O)c1ccccn1 (stereo not drawn)	-3.77
O=C(Nc1ccc(CN2CCOCC2)cc1)c1cccc(Cl)c1	-2.85
Cc1ccc(CN2CC34C=CC(O3)C(C(=O)NCc3ccco3)C4C2=O)cc1 (stereo not drawn)	1.83
CCOC(=O)c1c(C)[nH]c(-c2ccc(OC)cc2)c1-c1ccc(OC)cc1	-2.5
CC(=O)N/C(=C\c1cccs1)C(=O)O	-1.6
COc1ccc(NC2=CC(=O)c3ccccc3C2=O)cc1	6.47
O=C(NCc1ccco1)c1cc2n(n1)C(C(F)(F)F)CC(c1ccc(F)cc1)N2 (stereo not drawn)	2.44
Cc1ccc(C(=O)NC(C)c2ccc3c(c2)OCO3)s1 (stereo not drawn)	-5.34
O=C(c1ccccc1)c1ccc[nH]1	1.42
O=C(NCCN1CCOCC1)c1ccc(Cl)c(Cl)c1	-0.687
CC1CC(C)CN(C(=O)Cn2ncc3c4ccccc4n(Cc4ccccc4)c3c2=O)C1 (stereo not drawn)	1.8
Cc1ccc(Cc2cnc(CN3CCOCC3)c(O)c2)cc1	-2.03
CO/C(O)=C1\C(C)=NC2=C(C(=O)CC(c3cccs3)C2)C1c1ccc(F)c(F)c1 (stereo not drawn)	2.26
COc1ccccc1OCC(=O)Nc1cccc(C(=O)Nc2nccs2)c1	-2.6
Cc1ccc2n1CCN(C(=O)c1ccc(S(=O)(=O)N(C)C)cc1)C2C (stereo not drawn)	2.99
O=C(c1ncc[nH]1)c1ccccc1C(=O)N1CCCC1	3.83
COc1ccc(Cl)cc1-n1nnc(-c2nsc(NC(=O)c3cccc(C)c3)n2)c1C	3.99
CCC(=O)N1CCN(CCNC=C2C(=O)N(C)C(=O)N(C)C2=O)CC1	-6.35
NC(=O)c1c(NC(=O)c2nc(SCc3ccc(F)cc3)ncc2Cl)sc2c1CCCC2	5.54
C[C@@H]1O[C@@H](OCc2ccccc2)[C@@H]2OC(c3ccccc3)O[C@@H]2[C@H]1O (stereo partly drawn)	3.32

SMILES	% Inhibition @ 10 uM [%]
Cc1ccc(CNC(=O)CSc2nncn3c2cc2oc(C)cc23)cc1	-5.93
O=S(=O)(c1ccc(-c2ccccc2)cc1)N1CCCCC1	-5.91
CC(C)Cc1cc(C(=O)NC(C)c2ccccc2)no1 (stereo not drawn)	-1.21
O=C(O)c1ccc(Oc2ncnc3sc4c(c23)CCCC4)cc1	2.26
COc1ccc(C(=O)Nc2ccc(OCc3ccccc3)cc2)c(OC)c1	6.1
Cn1c(=O)c2c(nc(SCC(=O)O)n2Cc2ccccc2Cl)n(C)c1=O	6.12
C=CCNC(=O)c1cc2c(=O)n3ccccc3nc2n(CCOC)c1=N	3.6
CCc1nc2ccccc2c(NC(=O)CN(C)CCc2ccc(OC)c(OC)c2)c1C	-0.216
CC1CC2c3cccc(C(=O)O)c3C(=O)N2Cc2ccccc21 (stereo not drawn)	1.52
CC(C)(C)C(=O)n1nc(-c2ccccc2)oc1=O	-1.82
CC(C)N(Cc1ccccc1)C(=O)c1ccc(Cl)cc1Cl	-0.833
COc1ccc(NC(=O)Nc2ccc(Cl)c(Cl)c2)cc1OC	-17.2
O=S(=O)(c1ccc(Oc2ccccc2)cc1)N1CCCC1	-3.44
CCCNC(=O)CN(C)S(=O)(=O)c1c(C)cc(C)cc1C	2.36
Cc1[nH]c2ccccc2c1/C=C1/SC(=O)N(CC(=O)N2CCCC2)C1=O	9.65
Cc1ccc(N2C(=O)c3ccc(C(=O)O)cc3C2=O)c(C)c1	3.17
CCOC(=O)C1=CN(Cc2ccc(OC)cc2)C=C(C(=O)OCC)C1c1cccc(F)c1	-5.05
COc1ccc(N(CC(=O)Nc2ccccc2Cl)S(=O)(=O)c2ccccc2)cc1OC	-2.09
CCSc1nc2n(n1)C(c1ccc(Br)cc1)C1=C(O)CCCC1=N2 (stereo not drawn)	1.62
COc1ccc(C(=O)Nc2ccc(S(=O)(=O)Nc3cc(C)on3)cc2)cc1	4.11
O=S(=O)(CCO)c1ccc2oc(O)nc2c1	2.55
O=C(NCc1ccc(-n2cccc2)cc1)c1nc(-c2cccs2)no1	-0.403
Cc1ccc(-c2cn3c(n2)sc2cc(C(=O)NCc4ccccn4)ccc23)cc1	-4.18
COc1ccc(C(=O)Nc2cc(C)ccc2C)cc1Br	-4.02
